The nature of data set [1]: LO14 TOP1i ADC PK Parameters. An excerpt: Table printed on a drawing sheet, FIG. 7C
Title: LO14 TOP1i ADC PK Parameters
A standard 2 comportment naïve pool model was used to calculate clearance, half-life, and volume of distribution and over a 21 day duration. There is minimal difference in clearance of LO14 antibody or ADC in immunocompromised NSG mice (left). The clearance of LO14 SG3932 DAR8 ADC is similar in both immunodeficient (NSG, Athymic Nude) and immunocompetent (FcRN) mice (right).
A standard 2 comportment naïve pool model was used to calculate clearance, half-life, and volume of distribution and over a 21 day duration. There is minimal difference in clearance of LO14 DAR4 or DAR8 ADCs in immunocompromised NSG mice (left).
First reader's note: The sheet heading over the plot reads 'PK Profile of LO14 LP-1 DAR8 ADC in NSG Mice SD, IV, 5 mpk', giving the dosing conditions for these parameters.

Data set [2] is described as follows: Heat stress developability. The format is physicochemical. Conditions: hIgG1-TM.
A short description of data set [3]: Photo stress developability. Conditions: hIgG1-TM. It counts as physicochemical.
Data set [4] has as its system C42 cells. The data set is described as follows: Internalization assay (Fab-Fluor, Incucyte live cell imaging). The format is cell-based, human. The settings on record: calculated between 2.5-6 hours. An excerpt:
The internalization assays were designed to determine the rate at which parental 40A3-LO7 and its affinity matured derivatives could enter the cell after target engagement. The assay relies on labeling the Fc-containing test antibodies with a Fab fragment-conjugated pH-sensitive fluorophore (Sartorius/Essen BioScience) and the inherent ability of STEAP2 receptor to internalize when bound to antibody. The internalization of the anti-STEAP2 antibodies was detected with standard methods of live cell imaging using the Incucyte SX5.
Briefly, 24 hrs prior to starting the assay, the cells lines being evaluated were harvested using cold 0.25% Trypsin-EDTA, resuspended in maintenance media, pelleted, and counted. Cell density was adjusted to 0.15 e6 cells/ml in RPMI1640 media without phenol red. One hundred microliters of cells were added to each well and incubated overnight at 37 C, 5% CO2. […] The data was normalized analyzed by dividing the “Total Integrated Intensity (TII=RCU×μm^2/Image)” by the “% Confluence,” then multiplying by an appropriate scaling factor. The normalized data plotted as a function of time, and the slope was calculated to determine the internalization rate (A intensity/min). The earliest timepoint at which fluorescent signal was detected above background was at 2 hours (FIG. 4A-4B, top), so the internalization kinetics were calculated between 2.5-6 hours.

The subject of another data set is LNCaP cells. Nature of the data set: Cytotoxicity assay (CellTiter-Glo 2.0) in LNCaP. The format is cell-based, human. On the procedure:
(§1) The cytotoxicity assays were designed to determine whether LO11 and LO14 TOP1i ADCs could reduce the cell viability of STEAP2 expressing prostate cancer cell lines. The assay relies on the principle that dying cells will produce less adenosine triphosphate (ATP). […] The bioluminescent signal was detected using standard plate-reading methods (SpectraMax M5). Briefly, 24 hours prior to starting the assay, human prostate cancer cells were harvested and counted described above. […] Fifty microliters of each dilution was added to the designated wells and cells were incubated for 5. After removing the treatment media, 50 microliters of RPMI1640 media without Phenol Red and 50 microliters of CTG2.0 (Promega) was added to each well. Plates were incubated for 20 minutes and then transferred to the SpectraMax M5 for luminescence detection.

Data set [5] has as its system C42 cells. Nature of the data set: Cytotoxicity assay (CellTiter-Glo 2.0) in C42. It counts as cell-based, human. On the procedure: as §1
A general note: ATP-based viability assays read luminescence as a measure of living cells.

For a further data set, the system named is 22Rv1 cells. Nature of the data set: Cytotoxicity assay (CellTiter-Glo 2.0) in 22Rv1. It counts as cell-based, human. On the procedure: as §1
The test system of the next data set is C42 model. The data set is described as follows: In vivo efficacy, C42 cell-derived xenograft. Set-up: species or system NSG mice. Conditions: C42 model, single IV dose. On the procedure:
(§2) Cell lines or tumor tissue fragments were implanted subcutaneously into male NSG mice between 6 to 8 weeks of age. When tumors reached the appropriate tumor volume range (150-300 mm^3), animals were randomized into treatment and control groups (n=5 animals/group) and dosing was initiated. A single dose of test article was administered to the tumor-bearing mice via intravenous injection. Animals were observed daily, and tumor dimensions and body weight were measured and recorded twice weekly. Tumor volumes were measured by digital caliper and the volumes of tumors were calculated using the following formula: tumor volume=[length (mm)×width (mm)^2×0.52, where the length and width are the longest and shortest diameters of the tumor, respectively.
(§3) Monotonic (always decreasing) generalized additive model (GAM) spline curves were fit to the dose response data to illustrate the statistical difference between the effects of LO14 TOP1i DAR4 and DAR8 ADCs across the tested CDX and PDX models (FIG. 8E).
(§4) • DAR4.Ix50/DAR8.Ix50 refers to the best fit value of the lambda, wherein best is based on the r-squared value. • Diff is the difference in relative growth rate between DAR4 and DAR8. • SE=standard error

In another data set the test system is 22Rv1 model. The data set is described as follows: In vivo efficacy, 22Rv1 cell-derived xenograft. On the set-up: species or system NSG mice. The settings on record: 22Rv1 model, single IV dose. Here is the method: as §2, §3, §4
Data set [6] can be described thus: Pharmacokinetics in NSG mice. The format is in vivo. The settings on record: single 5 mpk IV. Here is the method: A study was designed to characterize the pharmacokinetics (PK) properties of LO14 unconjugated antibody, DAR4, and DAR8 TOP1i ADCs in mice. Four to six week old male immunodeficient (athymic nude, NOD Scid Gamma) or humanized mice (FcRn) were administered a single dose 5 milligrams per kilogram (mpk) intravenous injection of test reagent. Animals were monitored and 100-200 microliters of blood was collected at each timepoint (n=9 timepoints between 0 to 21 days post injection). The mice for each test group (n=9) were distributed among three cohorts to enable 6 survival bleeds and 3 terminal bleeds over the course of the study. Standard ELISA and Mass Spectrometry methods were used to quantify plasma concentration (ug/mL) of each test article over time. A standard 2 compartment model was fit to the pooled data from all the mice on study. All the individual datapoints are utilized but assuming that there is no inter-animal variability in any of the parameters (naive pooled approach). The 2 compartment model was used to calculate drug clearance (C1), the apparent volume of distribution at steady state (Vss), and half-life (T1/2).

Where a chain is given by its changes, count along the chain named. Where “and” joins values, the source holds several entries; their conditions need not be identical. Equal entries are not always repeated.

B1: LO14 TOP1i ADC (conjugate)
heavy: QVQLQQSGPGLVKPSQTLSLTCAISGDSVSRNSAVWNWIRQSPSRGLEWLGRTYYRSKWYNDYAPSVKSRITINPDTSKNQFSLQLNSVTPEDTAVYYCARGLRQNQFYYYMDVWGKGTTVTVSSASTKGPSVFPLAPSSKSTSGGTAALGCLVKDYFPEPVTVSWNSGALTSGVHTFPAVLQSSGLYSLSSVVTVPSSSLGTQTYICNVNHKPSNTKVDKRVEPKSCDKTHTCPPCPAPEFEGGPSVFLFPPKPKDTLMISRTPEVTCVVVDVSHEDPEVKFNWYVDGVEVHNAKTKPREEQYNSTYRVVSVLTVLHQDWLNGKEYKCKVSNKALPASIEKTISKAKGQPREPQVYTLPPSREEMTKNQVSLTCLVKGFYPSDIAVEWESNGQPENNYKTTPPVLDSDGSFFLYSKLTVDKSRWQQGNVFSCSVMHEALHNHYTQKSLSLSPGK
light: EIVMTQSPATLSVSPGERATLSCRASQSVASNLAWYQQKPGQAPRLLIYGASTRATGIPARFSGSGSGTEFTLTISSLQSEDFAVYYCQQYNNWPFTFGPGTKVDIKRTVAAPSVFIFPPSDEQLKSGTASVVCLLNNFYPREAKVQWKVDNALQSGNSQESVTEQDSKDSTYSLSSTLTLSKADYEKHKVYACEVTHQGLSSPVTKSFNRGEC
B1: in data set [1], the “CLp” value came to 7.7 mL/day/kg and the “t1/2” value was determined as 9.7 days.

B2: 40A3-LO11 (antibody)
heavy: B1 heavy with R104L
light: B1 light
On to B2, for which the “Heat Stress (% aggregate increase)” value in [2] is listed as 0.24%. Besides, the “Photo stress (% aggregate increase)” value in [3] is recorded as 0.8%. In the data set on C42 cells [4], the internalization rate was 66 TII/min.

B3: LO14 LP-1 DAR8 ADC (conjugate)
heavy: B1 heavy
light: B1 light
For B3, the “cytotoxic effect on cell viability, in words (LNCaP)” value in the data set on LNCaP cells is “dose-dependent decrease in cell viability”. In the data set with C42 cells [5], the “cytotoxic effect on cell viability, in words (C42)” value is “dose-dependent decrease in cell viability”. The “cytotoxic effect on cell viability, in words (22Rv1)” value in the data set on 22Rv1 cells was “dose-dependent decrease in cell viability”. Further, the “dose as low as which significant tumor regression was observed” value in the data set with C42 model is 0.25 mpk and 0.5 mpk. Moreover, the “dose at which significant tumor regression was achieved” value in the data set on 22Rv1 model was 3-6 mpk.

B4: 40A3-LO14 (antibody)
heavy: B1 heavy
light: B1 light
Take B4: in data set [2], the “Heat Stress (% aggregate increase)” value worked out at 0.27%. The “Photo stress (% aggregate increase)” value in data set [3] is recorded as 1.75%. Moreover, the internalization rate with C42 cells [4] is 85 TII/min. Further, in [6], the T1/2 was found to be 15 days and the distribution volume (Vss) (in general, the apparent volume that relates the amount in the body to the concentration in plasma or blood) was 0.11 L/kg. Besides, the “Cl (clearance)” value in [6] (2 compartment model) was 5.2 mL/day/kg.

The values above are taken from US20250041435A1, “STEAP2 ANTIBODY DRUG CONJUGATES AND USES THEREOF” (MedImmune, LLC, priority 2023, published 2025).
